About 64,000 (15%) of roughly 420,000 compounds were called active. The inconclusive results got no clear call from the source; some entries with a clear call stand among them for comparison. Calls come from the whole dose curve; as a rule, active = well fitted inhibition curve with a large enough effect; inconclusive = small, poorly fitted or top-dose-only effect; inactive = flat fitted curve, though single readings scatter. No potency is given beside an inconclusive call; the fits are too rough.
assay: qHTS for Inhibitors of human tyrosyl-DNA phosphodiesterase 1 (TDP1): qHTS in cells in absence of CPT; details: DT40 Tdp1-/- hTDP1 cells, no CPT, ATP luminescence, 48 h; series mostly up to 46.2 µM; note: nearly all actives have a fitted effect of over 55% in size
Method in brief: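 Chicken DT40 Tdp1-/- cells complemented with human TDP1, screened without camptothecin (DMSO vehicle only), 400 cells/well. Compounds pin-transferred, cells incubated at 37 °C for at least 48 hr. Growth read as ATP-dependent luminescence (CellTiter-Glo, 30 min at RT).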
Potency is the fitted concentration of half-maximal effect; tags give direction and shape of the fitted curve.

Compound	Potency
Cc1nnc2n(-c3ccccc3)c(=O)c3c4c(sc3n12)CC(C)CC4 (centres undefined)	inconclusive [inhibitor, partial curve, poor fit]
Cc1ccc2c(c1)C(=O)C(=O)N2c1ccc(Cl)cc1	inconclusive [inhibitor, full curve, poor fit]
CCn1c(NCCO)nc2c(c1=O)C(C)(CC)Cc1ccccc1-2 (centres undefined)	active: 16.4 µM
c1nc(SSc2ncc3n[nH]nc3n2)nc2n[nH]nc12	inactive
Cc1ccc(NC(=O)CN2C(=O)CCn3nc(-c4cccn4C)cc32)c(Cl)c1	inconclusive [inhibitor, single point]
CCCS(=O)(=O)c1c(S(=O)(=O)CCC)c2ccc(C(N)=O)cn2c1C(=O)OC	inactive
CCc1nc(OCc2ccco2)c2sc3nc4c(cc3c2n1)COC(C)(C)C4	active: 16.4 µM
CN(C)c1ccc(/C=C/c2c3ccccc3nc3ccccc23)cc1	active: 12.6 µM
O=C(NC1CCCCC1)c1ccc(CS(=O)(=O)c2ccc(Cl)cc2)o1	inconclusive [inhibitor, single point]
COc1c(F)c(F)c(C(=O)Nc2cccc(Cl)c2N2CCOCC2)c(F)c1F	active: 20.6 µM
CCOC(=O)C1CCN(C(=O)Cn2ncc3c4ccccc4n(Cc4ccccc4F)c3c2=O)CC1	active: 4.61 µM
CN(C)c1ccc(NC(=O)CN2C(=O)c3ccccc3Sc3ccc(C(=O)N4CCCC4)cc32)cc1	inconclusive [inhibitor, single point]
CCN(C(=O)c1cccn(Cc2ccccc2C)c1=O)c1ccccc1	inconclusive [inhibitor, single point]
CCc1nc2ccc(C(=O)N3CCN(c4ccccc4)CC3)cn2c1N(CCC(C)C)CCN(C)C	inconclusive [inhibitor, single point]
CCc1c(-c2ccc(Br)cc2)ncn1Cc1cccc(-c2ccccc2)c1	active: 5.17 µM
CCOC(=O)c1c(C)nn(Cc2ccccc2)c1N	inactive
CCNC(=O)C1CCN(S(=O)(=O)c2ccc(F)cc2)CC1	active: 18.4 µM
CCOc1cc(/C=N/NC(=O)c2nnn(-c3nonc3N)c2C)ccc1OCc1ccc(C)cc1	inconclusive [inhibitor, single point]
CCC(C)Oc1ccccc1C1CC(=O)NC2=C1C(=O)CCC2 (centres undefined)	inconclusive [inhibitor, single point]
Cc1ccc(COC(=O)c2nn(C)c(=O)c3ccccc23)cc1	active: 13 µM
Cc1cc(Cl)ccc1C(=O)C1CCCN(C(=O)CCN2CCCO2)C1 (centres undefined)	inconclusive [inhibitor, partial curve, poor fit]
Cc1ccc(C(=O)O)cc1-c1ccc(/C=C2\SC(=O)N(CC(=O)Nc3ccc4c(c3)OCO4)C2=O)o1	inactive

Compound	Potency
CC(=O)Nc1cccc(NC(=O)c2sc3ncn(CC(=O)N4CCCCC4)c(=O)c3c2C)c1	inconclusive [inhibitor, partial curve, poor fit]
c1ccc(Nc2ncnc3ccc(-c4ccc5c(c4)OCO5)cc23)cc1	inconclusive [inhibitor, single point]
COc1ccc(-n2c(=O)c(CCc3ccccc3)nc3cnc(OC)nc32)cc1	inconclusive [inhibitor, single point]
Cn1ncc2c(c(SCc3ccc(Cl)cc3Cl)nn2C)c1=O	inconclusive [inhibitor, single point]
CSc1ccc(/C=C/C(=O)OCC(=O)NC2CCCC2)cc1	inconclusive [inhibitor, single point]
CC(=O)CSc1nc2ccc(Nc3nc(N4CCOCC4)nc(N4CCOCC4)n3)cc2s1	inconclusive [inhibitor, partial curve]
O=C(CSc1cccc2cccnc12)Nc1ccccc1F	inconclusive [inhibitor, single point]
CCCCn1c(SCC(=O)NCc2ccc(OC)c(C(=O)O)c2)nc2cc(S(N)(=O)=O)ccc21	inactive
Cc1ccc(C2c3[nH]c4ccccc4c3C[C@H]3C(=O)N(c4ccccc4C(=O)NCCCN4CCOCC4)C(=O)N23)cc1 (some centres undefined)	inconclusive [inhibitor, single point]
CCOC(=O)N1CCN(Cc2nc3cc(NC(=O)c4cccs4)ccc3n2CC)CC1	active: 25.9 µM
Cc1nn(CCCC(=O)NCc2cccc(Cl)c2)c(=O)c2c1sc1ccccc12	inconclusive [inhibitor, single point]
COCCCN1C(=O)C(CC(=O)NCC2CCCCC2)CC(C(=O)N2CCOCC2)=C1C (centres undefined)	inactive
Cc1cccc(OCc2nnc(N)s2)c1C	inactive
Cc1ccc(S(=O)(=O)N(C)C)cc1NS(=O)(=O)c1ccc(Cl)s1	inactive
Cc1ccc(C(=O)N/C(=C\c2cccnc2)c2nc3ccccc3[nH]2)cc1	inconclusive [inhibitor, single point]
N#C/C(=C1/C(=O)Nc2ccc(Br)cc21)c1ccccn1	inconclusive [inhibitor, single point]
CCN(C[C@H]1N[C@@](C)(C(=O)OC)[C@H]2C(=O)N(Cc3ccccc3)C(=O)[C@@H]12)C(=O)Nc1ccc(Cl)cc1	inconclusive [inhibitor, single point]
COc1cc(-c2csc(CCn3nc(C)cc3C)n2)cc(OC)c1OC	active: 18.4 µM
O=C(NN=Cc1ccc2c(c1)CCC2)c1ccccc1O	inconclusive [inhibitor, single point]
CC(=O)c1ccc(S(=O)(=O)N2CCN(C(=O)c3ccc(-n4nc(C)c(Cl)c4C)cc3)CC2)cc1	active: 13 µM
Cc1cccc(OCC(O)Cn2c(=N)n(Cc3ccccc3)c3ccccc32)c1 (centres undefined)	active: 20.6 µM
CC(NC(=O)c1cccc(S(=O)(=O)N2CCN(Cc3ccccc3)CC2)c1)c1ccc(Br)cc1 (centres undefined)	inconclusive [inhibitor, single point]

Source: PubChem BioAssay AID686978 (National Center for Advancing Translational Sciences (NCATS), 2013)
